# Experimental data published in patent US20160229915A1 (Chugai, published 2016).
# T1: human FcgRIIa, allotype H (H131), extracellular domain, C-terminal His tag (human, UniProt P12318 34-217)
# T1 construct: extracellular domain; also called hFcgRIIaH; FcγRIIa H type; not shown: C-terminal His tag
# T1 sequence (looked up): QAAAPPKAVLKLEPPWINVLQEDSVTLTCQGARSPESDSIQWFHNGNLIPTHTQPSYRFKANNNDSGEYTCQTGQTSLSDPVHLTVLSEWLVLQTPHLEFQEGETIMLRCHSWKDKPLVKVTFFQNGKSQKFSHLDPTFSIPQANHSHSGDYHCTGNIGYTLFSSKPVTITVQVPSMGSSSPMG
# T2: human FcgRIIb extracellular domain, C-terminal His tag (human, UniProt P31994 43-217)
# T2 construct: extracellular domain; also called hFcgRIIb; FcγRIIb; not shown: C-terminal His tag
# T2 sequence (looked up): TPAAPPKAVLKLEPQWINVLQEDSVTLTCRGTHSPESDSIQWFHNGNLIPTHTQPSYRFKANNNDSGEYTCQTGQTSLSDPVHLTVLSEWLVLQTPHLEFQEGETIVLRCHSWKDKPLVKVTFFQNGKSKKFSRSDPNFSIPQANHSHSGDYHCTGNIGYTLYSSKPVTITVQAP
# T3: human FcgRIIa, allotype R (R131), extracellular domain, C-terminal His tag (human, UniProt P12318 34-217)
# T3 construct: extracellular domain; also called hFcgRIIaR; FcγRIIa R type; not shown: C-terminal His tag
# T3 sequence (looked up): T1 sequence (looked up) with H134R
# B1: MRAH-G1dP1/MRAL-k0 (antibody, human IgG1, kappa)
# heavy: QVQLQESGPGLVRPSQTLSLTCTVSGYSITSDHAWSWVRQPPGRGLEWIGYISYSGITTYNPSLKSRVTMLRDTSKNQFSLRLSSVTAADTAVYYCARSLARTTAMDYWGQGSLVTVSS[human IgG1 constant region with D356K (EU numbers) not spelt out]
# light: DIQMTQSPSSLSASVGDRVTITCRASQDISSYLNWYQQKPGKAPKLLIYYTSRLHSGVPSRFSGSGSGTDFTFTISSLQPEDIATYYCQQGNTLPYTFGQGTKVEIKRTVAAPSVFIFPPSDEQLKSGTASVVCLLNNFYPREAKVQWKVDNALQSGNSQESVTEQDSKDSTYSLSSTLTLSKADYEKHKVYACEVTHQGLSSPVTKSFNRGEC
# notes: Homo variant with D356K (EU numbering) in G1d, lacking V397Y
# B2: MRAH-G1dP17/MRAL-k0//H54-G1dN17/L28-k0 (bispecific antibody, human IgG1, kappa)
# heavy 1: QVQLQESGPGLVRPSQTLSLTCTVSGYSITSDHAWSWVRQPPGRGLEWIGYISYSGITTYNPSLKSRVTMLRDTSKNQFSLRLSSVTAADTAVYYCARSLARTTAMDYWGQGSLVTVSS[human IgG1 constant region with D356K V397Y (EU numbers) not spelt out]
# light 1: B1 light
# heavy 2: QVQLQESGPGLVKPSETLSLTCAVSGYSISDDQAWSWVRQPPGEGLEWIGYISYSGITNYNPSLKGRVTISRDTSKNQFSLKLSSVTAADTAAYYCARSLARTTAMDYWGEGTLVTVSS[human IgG1 constant region with V397Y K439E (EU numbers) not spelt out]
# light 2: B1 light with R18S, R24Q, K45E, T51G, R53E, Q79E, P80A, I83A, T93S, K107E
# notes: Product of Fab arm exchange between MRAH-G1dP17/MRAL-k0 (D356K/V397Y) and H54-G1dN17/L28-k0 (V397Y/K439E); also called G1dP17/N17; altered form after Fab arm exchange
# B3: H54-G1dN17/L28-k0 (antibody, human IgG1, kappa)
# heavy: B2 heavy 2
# light: B1 light with R18S, R24Q, K45E, T51G, R53E, Q79E, P80A, I83A, T93S, K107E
# notes: Homo variant before Fab arm exchange; V397Y/K439E (EU numbering) in G1d
# B4: H54-G1dN1/L28-k0 (antibody, human IgG1, kappa)
# heavy: QVQLQESGPGLVKPSETLSLTCAVSGYSISDDQAWSWVRQPPGEGLEWIGYISYSGITNYNPSLKGRVTISRDTSKNQFSLKLSSVTAADTAAYYCARSLARTTAMDYWGEGTLVTVSS[human IgG1 constant region with K439E (EU numbers) not spelt out]
# light: B1 light with R18S, R24Q, K45E, T51G, R53E, Q79E, P80A, I83A, T93S, K107E
# notes: Homo variant with K439E (EU numbering) in G1d, lacking V397Y
# B5: MRAH-G1dP17/MRAL-k0 (antibody, human IgG1, kappa)
# heavy: B2 heavy 1
# light: B1 light
# notes: Homo variant before Fab arm exchange; D356K/V397Y (EU numbering) in G1d
# Molecular target: T1, human FcgRIIa, allotype H (H131), …
# Experiment: SPR (Biacore); relative binding activity, KD of G1d defined as 1
# Experimental: (§1) Next, the binding activity against human FcgR was evaluated according to the method of Reference Example 4. In this context, MRAH-G1 d/MRAL-k0 having the sequence of naturally occurring IgG1, the altered form MRAH-G1dP17/MRAL-k0//H54-G1dN17/L28-k0 after Fab arm exchange, two types of homo variants before Fab arm exchange reaction (MRAH-G1dP17/MRAL-k0 and H54-G1dN17/L28-k0), and two types of homo variants lacking the alteration V397Y to destabilize CH3 domains (MRAH-G1dP1/MRAL-k0 and H54-G1dN1/L28-k0) were evaluated together. In Table 8, KD fold hFcgRIa, KD fold hFcgRIIaR, KD fold hFcgRIIaH, KD fold hFcgRIIb, and KD fold hFcgRIIIaV are values that indicate the relative binding activity of each altered form when KD of G1d for each FcgR is defined as 1.
# (§2) The antibody of interest was captured onto these sensor chips and allowed to interact with the Fcγ receptor diluted with a running buffer. The binding amount to the antibody was measured and compared among antibodies. Since the binding amount of the Fcγ receptor depends on the amount of the captured antibody, a correction value determined by dividing the binding amount of the Fcγ receptor by the amount of each captured antibody was used in the comparison. The antibody captured on the sensor chip was washed off through the reaction of 10 mM glycine-HCl (pH 1.5) to regenerate the sensor chip, which was repetitively used.
row,KD fold hFcgRIIaH [fold],Binder
1,0.9,B1
2,2.3,B2
3,2.2,B3
4,0.9,B4
5,2.1,B5

# Molecular target: T2, human FcgRIIb extracellular domain, …
# Experiment: as above
# Experimental: as §1, §2
row,KD fold hFcgRIIb [fold],Binder
1,0.9,B1
2,2.5,B2
3,2.6,B3
4,0.9,B4
5,2.3,B5

# Molecular target: T4, human FcgRIIIa, allotype V (V158), extracellular domain, C-terminal His tag (human, UniProt P08637 fragment)
# T4 construct: extracellular domain; also called hFcgRIIIaV; FcγRIIIa V158; not shown: C-terminal His tag
# Experiment: as above
# Experimental: as §1, §2
# T4 sequence (P08637 17-208 F176V): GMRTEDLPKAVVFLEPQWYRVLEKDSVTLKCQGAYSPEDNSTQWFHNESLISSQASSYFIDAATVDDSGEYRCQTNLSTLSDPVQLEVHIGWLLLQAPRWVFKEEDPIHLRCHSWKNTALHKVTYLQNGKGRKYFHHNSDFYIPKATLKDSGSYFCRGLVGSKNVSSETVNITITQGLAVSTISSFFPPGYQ
row,KD fold hFcgRIIIaV [fold],Binder
1,1,B1
2,2.5,B2
3,2.5,B3
4,1.1,B4
5,2,B5

# Molecular target: T5, human FcgRIa extracellular domain, C-terminal His tag (human, UniProt P12314 16-292)
# T5 construct: extracellular domain; also called hFcgRIa; FcγRI; not shown: C-terminal His tag
# Experiment: as above
# Experimental: as §1, §2
# T5 sequence (P12314 16-292): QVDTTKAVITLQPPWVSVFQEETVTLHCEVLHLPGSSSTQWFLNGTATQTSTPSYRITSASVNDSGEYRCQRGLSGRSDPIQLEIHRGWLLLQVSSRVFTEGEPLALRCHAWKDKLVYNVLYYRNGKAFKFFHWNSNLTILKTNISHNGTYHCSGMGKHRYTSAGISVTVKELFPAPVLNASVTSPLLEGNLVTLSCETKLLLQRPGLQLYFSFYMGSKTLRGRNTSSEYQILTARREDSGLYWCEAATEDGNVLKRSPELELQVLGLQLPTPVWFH
row,KD fold hFcgRIa [fold],Binder
1,1,B1
2,1.1,B2
3,1.3,B3
4,0.6,B4
5,0.6,B5

# Molecular target: T3, human FcgRIIa, allotype R (R131), …
# Experiment: as above
# Experimental: as §1, §2
row,KD fold hFcgRIIaR [fold],Binder
1,0.9,B1
2,2.7,B2
3,2.6,B3
4,1,B4
5,2.4,B5

# Molecular target: T6, soluble human FcRn (complex of FcRn and beta2-microglobulin) (human, UniProt P55899 fragment; P61769 fragment)
# T6 construct: extracellular domain;mature
# Experiment: SPR (Biacore), human FcRn as analyte; pH not given
row,Kd [nM],Binder
1,1900,B2

# Molecular target: T1, human FcgRIIa, allotype H (H131), …
# Experiment: SPR (Biacore), antibody captured on chip, His-tagged FcgR extracellular domain as analyte, 25 C
# Experimental: as §1, §2
row,Kd [nM],Binder
1,990,B1
2,370,B2
3,390,B3
4,960,B4
5,410,B5

# Molecular target: T2, human FcgRIIb extracellular domain, …
# Experiment: as above
# Experimental: as §1, §2
row,Kd [nM],Binder
1,7000,B1
2,2500,B2
3,2400,B3
4,7100,B4
5,2700,B5

# Molecular target: T4, human FcgRIIIa, allotype V (V158), …
# Experiment: as above
# Experimental: as §1, §2
row,Kd [nM],Binder
1,510,B1
2,210,B2
3,200,B3
4,450,B4
5,250,B5

# Molecular target: T5, human FcgRIa extracellular domain, …
# Experiment: as above
# Experimental: as §1, §2
row,Kd [nM],Binder
1,0.16,B1
2,0.14,B2
3,0.13,B3
4,0.25,B4
5,0.26,B5

# Molecular target: T3, human FcgRIIa, allotype R (R131), …
# Experiment: as above
# Experimental: as §1, §2
row,Kd [nM],Binder
1,1700,B1
2,580,B2
3,590,B3
4,1500,B4
5,650,B5

# Residue numbers refer to the chain shown, from its start. Names and notes keep the numbering of the source.
